Data published in the supplement of paper PMC12217912.
Some of the results follow. The full chains were built here from the parent and the listed change. Values near 0.05 are background.

B1: TEV protease; numbered along this chain (parent)
chain: MGESLFKGPRDYNPISSSICHLTNESDGHTTSLYGIGFGPFIITNKHLFRRNNGTLVVQSLHGVFKVKDTTTLQQHLVDGRDMIIIRMPKDFPPFPQKLKFREPQREERICLVTTNFQTKSMSSMVSDTSCTFPSGDGIFWKHWIQTKDGQCGSPLVSTRDGFIVGIHSASNFTNTNNYFTSVPKNFMELLTNQEAQQWVSGWRLNADSVLWGGHKVFMVKPEEPFQPVKEATQL

Variants of: B1
Assay: raw area under fraction-flipped curve 0-4 h after induction (AUC4h, not background-subtracted), DNA-recorder readout of cleavage of the substrate (dimensionless); higher = more cleavage of the substrate by the protease variant
Details: temperature: 34 °C; time window: 0-4 h after rhamnose induction
Protocol: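 In vivo DNA recorder in E. coli TOP10(DE3) ΔrhaA at 34 °C. Each TEVp single-site mutant (parent TEVp 0) is paired with a single-site variant of the 7-mer TEVs (canonical ENLYFQ|S). The substrate sits between flexible linkers in a Bxb1-sfGFP-TEVs-SsrA fusion, so cleavage stabilises Bxb1 and speeds flipping of a recombination array, read by NGS. The value is the raw area under the fraction-flipped curve over 0-4 h after rhamnose induction (AUC4h), with ≥20 reads per time point. It is not background-subtracted; inactive controls average about 0.047.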
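Also: Bxb1 expression induced with 0.2% (w/v) L-rhamnose at OD600 near 0.5, cultures sampled hourly, flipped fraction per protease–substrate barcode pair counted by paired-end Illumina sequencing.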

| Variant | area with substrate ENAYFQS | area with substrate ENCYFQS | area with substrate ENEYFQS | area with substrate ENFYFQS | area with substrate ENGYFQS | area with substrate ENHYFQS | area with substrate ENIYFQS | area with substrate ENKYFQS | area with substrate ENNYFQS | area with substrate ENPYFQS | area with substrate ENQYFQS | area with substrate ENRYFQS | area with substrate ENSYFQS | area with substrate ENVYFQS | area with substrate ENWYFQS | area with substrate ENDYFQS | area with substrate ENTYFQS | area with substrate ENMYFQS | area with substrate ENYYFQS |
| --- | --- | --- | --- | --- | --- | --- | --- | --- | --- | --- | --- | --- | --- | --- | --- | --- | --- | --- | --- |
| K100G | 0.0766 | 0.0596 | 0.073 | 0.0568 | 0.0476 | 0.0554 | 0.104 | 0.0611 | 0.0599 | 0.0542 | 0.0521 | 0.044 | 0.0553 | 0.069 | 0.0603 | – | – | – | – |
| M122I | 0.0622 | – | 0.0267 | – | 0.0615 | – | 0.0909 | 0.0533 | 0.0681 | – | 0.0543 | – | 0.0622 | 0.069 | – | 0.0592 | 0.14 | – | – |
| M122V | 0.0599 | – | 0.0649 | – | 0.0717 | – | – | 0.0676 | 0.0652 | 0.0655 | 0.0591 | – | 0.0682 | – | – | 0.0626 | 0.0612 | 0.0556 | – |
| N116Y | 0.0568 | 0.073 | 0.0742 | 0.0735 | 0.0686 | 0.0612 | 0.0943 | – | 0.0731 | 0.0792 | 0.0591 | – | – | 0.0801 | – | 0.0625 | – | – | 0.0638 |
| N116L | 0.098 | 0.0359 | 0.0577 | 0.0701 | 0.0628 | – | 0.127 | 0.0846 | 0.0331 | – | 0.0594 | – | 0.0644 | 0.0825 | – | – | – | – | 0.0534 |
| N116P | 0.0492 | 0.0572 | 0.0728 | 0.0143 | 0.0649 | 0.057 | – | 0.0654 | – | 0.0579 | 0.0573 | 0.0417 | – | – | – | 0.0469 | 0.0722 | 0.0703 | 0.0586 |
| Q105I | 0.0576 | – | 0.0624 | 0.0622 | 0.0541 | 0.0624 | 0.13 | – | – | 0.0633 | 0.058 | – | 0.0648 | – | 0.0553 | 0.0626 | 0.0525 | 0.069 | – |
| Q105L | 0.0669 | 0.0698 | 0.0489 | 0.0415 | 0.0511 | 0.0712 | – | – | – | 0.0689 | 0.0596 | 0.0576 | 0.05 | 0.0695 | – | 0.0749 | – | 0.0793 | – |
| P134Q | 0.0692 | 0.0709 | 0.074 | 0.0685 | 0.0504 | – | 0.0886 | 0.0554 | 0.0604 | – | 0.043 | 0.159 | 0.0489 | – | – | 0.0673 | – | – | – |
| S123N | 0.0674 | – | 0.0688 | 0.0575 | 0.0638 | 0.0614 | – | – | 0.0631 | – | 0.0612 | 0.0762 | 0.0626 | 0.0959 | – | 0.0706 | 0.048 | 0.0753 | – |
| E107L | 0.0702 | 0.055 | 0.0654 | 0.0669 | 0.0748 | 0.0699 | 0.108 | 0.0584 | 0.0629 | – | – | 0.0421 | 0.0641 | – | – | – | 0.0723 | – | – |
| T132C | 0.0597 | 0.0795 | – | 0.0956 | 0.0739 | – | 0.111 | – | 0.0544 | 0.0354 | 0.0528 | 0.0576 | 0.0574 | 0.0692 | – | 0.0567 | – | – | – |
| T132E | 0.0618 | 0.052 | – | 0.0527 | 0.055 | 0.0545 | – | – | 0.008 | – | 0.0887 | 0.0394 | 0.0528 | 0.0603 | 0.0126 | 0.056 | 0.0637 | – | 0.0561 |
| D137V | 0.049 | – | 0.0611 | – | 0.0652 | 0.0282 | – | 0.0637 | 0.0496 | 0.0431 | – | – | – | – | – | 0.0678 | 0.0474 | – | – |
| I139V | 0.0449 | 0.072 | 0.0524 | – | 0.0561 | – | 0.11 | 0.0364 | 0.0663 | – | 0.0624 | – | 0.0171 | – | 0.0515 | 0.0562 | 0.0555 | – | 0.0693 |
| V126C | 0.067 | 0.0759 | – | – | 0.0799 | 0 | – | – | – | – | 0.0594 | 0.0492 | 0.0697 | 0.0726 | – | – | 0.0552 | – | – |
| F101V | 0.0706 | – | 0.056 | – | – | – | – | – | – | – | – | – | 0.0535 | – | – | – | 0.0412 | 0.0625 | 0.049 |
| F117E | 0.0601 | 0.138 | 0.0667 | 0.0629 | 0.0561 | 0.0601 | – | – | 0.0566 | 0.0524 | 0.0618 | 0.0568 | 0.0661 | 0.0505 | – | 0.0615 | 0.0722 | 0.0786 | 0.0584 |
| K98P | 0.0599 | 0.0588 | 0.06 | 0.0583 | 0.0584 | 0.0639 | 0.12 | – | 0.0567 | – | 0.0709 | 0.0564 | 0.0519 | 0.078 | 0.0566 | 0.035 | – | 0.0715 | – |
| K98F | 0.0604 | – | 0.0657 | – | 0.0722 | – | – | – | – | 0.061 | 0.061 | 0.0544 | 0.0514 | – | – | 0.0657 | 0.0643 | – | 0.0547 |
| F133L | 0.0739 | – | 0.0564 | – | 0.0516 | 0.0454 | 0.085 | 0.0495 | 0.0654 | – | 0.0487 | – | 0.0798 | 0.0825 | – | – | 0.0592 | – | 0.0481 |
| F133M | 0.0622 | 0.0717 | 0.0658 | – | 0.0751 | 0.0706 | 0.107 | – | – | 0.0565 | 0.0667 | 0.059 | 0.0564 | 0.0837 | – | – | – | 0.0752 | – |
| F133P | 0.0628 | 0.0619 | 0.06 | 0.0642 | 0.0453 | – | 0.0745 | 0.0481 | 0.059 | 0.0501 | 0.019 | 0.0346 | 0.0533 | 0.0551 | – | 0.0543 | – | – | 0.052 |
| Q118Y | 0.0553 | 0.0737 | 0.0497 | 0.0685 | – | – | – | – | 0.0665 | 0.0549 | – | – | – | 0.0897 | – | 0.0425 | – | 0.0854 | – |
| C131M | 0.0601 | 0.0772 | 0.0786 | 0.0653 | 0.0678 | – | 0.0966 | – | – | – | 0.0635 | – | 0.058 | – | 0.0083 | – | – | – | – |
| T129L | 0.0715 | 0.0337 | 0.0575 | – | 0.049 | 0.0944 | 0.1 | 0.0644 | – | 0.0549 | 0.0331 | 0.0601 | 0.0704 | 0.0883 | 0.0086 | 0.0519 | 0.0419 | – | – |
| C111D | 0.0541 | 0.071 | 0.0547 | 0.0508 | 0.0509 | 0.0519 | 0.0624 | – | 0.0561 | 0.0552 | 0.0578 | 0.0681 | 0.0618 | 0.0633 | – | 0.0582 | 0.0629 | 0.0568 | – |
| F140L | 0.0646 | 0.0553 | – | – | 0.065 | 0.0772 | 0.0654 | – | – | 0.0705 | 0.0609 | 0.0625 | 0.0641 | 0.0591 | 0.0441 | 0.0626 | 0.0646 | 0.0838 | 0.058 |
